≈ marks a conversion by molar mass, not a printed value.
Key:
[1] = system: Herpes simplex type 1 HSV-1 strain(BW10168)TK-; experiment: microbe, parasite or virus in culture; conditions: Human alphaherpesvirus 1, Vero, read-out: ID50 (minimum drug concentration that inhibited the CPE by 50%)
[2] = system: Herpes simplex type 2 HSV-2 strain(BW9787)TK-; experiment: microbe, parasite or virus in culture; conditions: Human alphaherpesvirus 2, Vero, read-out: ID50 (minimum drug concentration that inhibited the CPE by 50%)
[3] = system: Herpes simplex type 1 HSV-1 strain(BW10168)TK-; conditions: HSV-1 (BW10168) TK-, Vero
[4] = system: Herpes simplex type 2 HSV-2 strain(BW9787)TK-; conditions: HSV-2 (BW9787) TK-, Vero

## Nc1nc2c(ncn2C2CC(CO)C2CO)c(=O)[nH]1 (stereo not drawn) [Example 1I, 9-(2',3'-Bis(hydroxymethyl)cyclobutyl)guanine]
[1]
  EC50: 4.06 µg/mL (≈ 15.3 µM)
[2]
  EC50: 0.79 µg/mL (≈ 2.98 µM)
[3]
  TI (Therapeutic Index, MTC/ID50): 24.6
  VR (Virus Rating): 3.3
[4]
  TI (Therapeutic Index, MTC/ID50): 127
  VR (Virus Rating): 5.4
